Test results published in the RNAGym collection of RNA variant scans (doi:10.1073/pnas.2313332121).
This sample is rich in variants without activity.

B1: TPR 5TU (parent)
chain: GGAUCUUCUCGAUCUAACAAAAAAGACAAAUCUGCCACAAAGCUUGAGAGCAUCUUCGGAUGCAGAGGCGGCAGCCUUCGGUGGCGCGAUAGCGCCAACGUUCUCAACUAUGACACGCAAAACGCGUGCUCCGUUGAAUGGAGUUUAUCAUG

Variants of: B1
Experiment: polymerase ribozyme fitness, log enrichment relative to wild type (log ratio); higher = more active; in vitro selection for triplet polymerase activity
Method in brief: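 Each subunit of a heterodimeric triplet polymerase ribozyme was mutagenized into a library by PCR, transcribed, and subjected to one round of in vitro selection, run in triplicate. Libraries were annealed with a biotinylated primer, the partner subunit and triplets, incubated frozen at −7 °C, and extended constructs were gel-excised, captured on streptavidin beads and recovered by RT-PCR. Input and output libraries were sequenced on Illumina, keeping genotypes with ≥10 input reads and ≥1 read per output. Fitness is log base 2 of genotype enrichment divided by wild-type enrichment, from inverse-variance-weighted replicate averages.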

With G42A G48A C76U C85A A106G C125G U127G G141A as the variant, how does the “polymerase ribozyme fitness (log ratio)” value read?
The value was no more than -4.2.

For G42A G48A G68A G86U C132A, which “polymerase ribozyme fitness (log ratio)” value is on record?
The value was no more than -4.2.

Which “polymerase ribozyme fitness (log ratio)” value does the source give for G42A G50A A66G G71U here?
The value was no more than -4.2.

With G42A G50A G59U G67C G94U C105A G136U as the variant, how does the “polymerase ribozyme fitness (log ratio)” value read?
Its value is no more than -4.2.

With G42A G50C U55A G84A G143U as the variant, how does the “polymerase ribozyme fitness (log ratio)” value read?
The value was no more than -4.2.

Which “polymerase ribozyme fitness (log ratio)” value does the source give for G42A G50C U56A C87U C116U here?
Its value is no more than -4.2.

Which “polymerase ribozyme fitness (log ratio)” value does the source give for G42A G50U C96A C103A U127G here?
The value was no more than -4.2.

For G42A G50U U53A U55A G83A U90C U144A, which “polymerase ribozyme fitness (log ratio)” value is on record?
Its value is no more than -4.2.

For G42A G58A A64C G65U G84U, which “polymerase ribozyme fitness (log ratio)” value is on record?
Its value is no more than -4.2.

With G42A G58A G100C as the variant, how does the “polymerase ribozyme fitness (log ratio)” value read?
The value was no more than -4.2.

Which “polymerase ribozyme fitness (log ratio)” value does the source give for G42A G58C C79A C118U A142U here?
Its value is no more than -4.2.

For G42A G58C G59C G88C A91G A106C A107G, which “polymerase ribozyme fitness (log ratio)” value is on record?
The value was no more than -4.2.

Which “polymerase ribozyme fitness (log ratio)” value does the source give for G42A G62A G68U here?
Its value is no more than -4.2.

For G42A G62A G88A G141A, which “polymerase ribozyme fitness (log ratio)” value is on record?
Its value is no more than -4.2.

Which “polymerase ribozyme fitness (log ratio)” value does the source give for G42A G71A A91U A97U G100C here?
Its value is no more than -4.2.

For G42A G74U G81A G84U A91C C99A A115U A138C A142G, which “polymerase ribozyme fitness (log ratio)” value is on record?
The value was no more than -4.2.

Which “polymerase ribozyme fitness (log ratio)” value does the source give for G42A G80C A106G C125G here?
The value was no more than -4.2.

Which “polymerase ribozyme fitness (log ratio)” value does the source give for G42A G86A here?
Its value is -3.97.

Which “polymerase ribozyme fitness (log ratio)” value does the source give for G42A G88C C118U here?
Its value is no more than -4.2.

For G42A G92A, which “polymerase ribozyme fitness (log ratio)” value is on record?
The value was no more than -4.2.

Which “polymerase ribozyme fitness (log ratio)” value does the source give for G42A G92U here?
Its value is no more than -4.2.

For G42A G94U U135G, which “polymerase ribozyme fitness (log ratio)” value is on record?
The value was no more than -4.2.

With G42A G100U as the variant, how does the “polymerase ribozyme fitness (log ratio)” value read?
The value was no more than -4.2.

For G42A G141U U145G, which “polymerase ribozyme fitness (log ratio)” value is on record?
Its value is no more than -4.2.

Which “polymerase ribozyme fitness (log ratio)” value does the source give for G42A G143U here?
The value was no more than -4.2.

For G42A U44A C93U C105U C123U A137C, which “polymerase ribozyme fitness (log ratio)” value is on record?
The value was no more than -4.2.

Which “polymerase ribozyme fitness (log ratio)” value does the source give for G42A U44G G133A U144A here?
Its value is no more than -4.2.

With G42A U45C C69A C132U as the variant, how does the “polymerase ribozyme fitness (log ratio)” value read?
The value was no more than -4.2.

With G42A U45G C87U U109G as the variant, how does the “polymerase ribozyme fitness (log ratio)” value read?
The value was no more than -4.2.

With G42A U53A U61C C85U A106U U134A U144G U145C as the variant, how does the “polymerase ribozyme fitness (log ratio)” value read?
The value was no more than -4.2.

Which “polymerase ribozyme fitness (log ratio)” value does the source give for G42A U53G U55A G83C C85U A107U C108U G112U A142G here?
The value was no more than -4.2.

With G42A U55A A66C C75U C96A G128C U134G as the variant, how does the “polymerase ribozyme fitness (log ratio)” value read?
The value was no more than -4.2.

With G42A U55A U56G A60U G133U U144A as the variant, how does the “polymerase ribozyme fitness (log ratio)” value read?
The value was no more than -4.2.

With G42A U56A C93U as the variant, how does the “polymerase ribozyme fitness (log ratio)” value read?
The value was no more than -4.2.

With G42A U56A G59C C75G C99U C118U C132U as the variant, how does the “polymerase ribozyme fitness (log ratio)” value read?
Its value is no more than -4.2.

Which “polymerase ribozyme fitness (log ratio)” value does the source give for G42A U56C G70U G88U A89C C96A U127A C149A here?
Its value is no more than -4.2.

For G42A U61A G86A G136C, which “polymerase ribozyme fitness (log ratio)” value is on record?
Its value is no more than -4.2.

For G42A U61G A66G G83A G88C, which “polymerase ribozyme fitness (log ratio)” value is on record?
Its value is no more than -4.2.

Which “polymerase ribozyme fitness (log ratio)” value does the source give for G42A U61G A138C here?
The value was no more than -4.2.

With G42A U78A G81U C93U C99A C131U as the variant, how does the “polymerase ribozyme fitness (log ratio)” value read?
Its value is no more than -4.2.

Which “polymerase ribozyme fitness (log ratio)” value does the source give for G42A U78G C95U G112C here?
Its value is no more than -4.2.

With G42C A47C A66G as the variant, how does the “polymerase ribozyme fitness (log ratio)” value read?
The value was no more than -4.2.

Which “polymerase ribozyme fitness (log ratio)” value does the source give for G42C A47G G88C here?
The value was no more than -4.2.

Which “polymerase ribozyme fitness (log ratio)” value does the source give for G42C A49C here?
Its value is no more than -4.2.

For G42C A49G C51U G58A G92A A115U A120U C131A U134A G140U U151G, which “polymerase ribozyme fitness (log ratio)” value is on record?
Its value is no more than -4.2.

For G42C A49U C63U, which “polymerase ribozyme fitness (log ratio)” value is on record?
Its value is -4.12.

With G42C A52C A64G G80A C96A C108U A110G as the variant, how does the “polymerase ribozyme fitness (log ratio)” value read?
Its value is no more than -4.2.

For G42C A52C G59A G74A G92C A97C C99A C108G U111C C116A A122U A138G G141C, which “polymerase ribozyme fitness (log ratio)” value is on record?
Its value is no more than -4.2.

With G42C A73C C79A G83C G94A C99U C123U G143C as the variant, how does the “polymerase ribozyme fitness (log ratio)” value read?
The value was no more than -4.2.

Which “polymerase ribozyme fitness (log ratio)” value does the source give for G42C A73U C85G A113U here?
The value was no more than -4.2.

For G42C A89G G92A G126U G133A, which “polymerase ribozyme fitness (log ratio)” value is on record?
The value was no more than -4.2.

For G42C A91G G92A U144C, which “polymerase ribozyme fitness (log ratio)” value is on record?
Its value is no more than -4.2.

For G42C A147G U151G, which “polymerase ribozyme fitness (log ratio)” value is on record?
The value was no more than -4.2.

With G42C C43A U55G C57U A66C A137C G141C as the variant, how does the “polymerase ribozyme fitness (log ratio)” value read?
The value was no more than -4.2.

For G42C C43U C54U A89C G94C A137U, which “polymerase ribozyme fitness (log ratio)” value is on record?
The value was no more than -4.2.

Which “polymerase ribozyme fitness (log ratio)” value does the source give for G42C C43U C54U A98G A120G here?
Its value is no more than -4.2.

Which “polymerase ribozyme fitness (log ratio)” value does the source give for G42C C43U G48A A49C C79A G86A G141C here?
The value was no more than -4.2.

For G42C C51A U55A C95U A98C, which “polymerase ribozyme fitness (log ratio)” value is on record?
Its value is no more than -4.2.

Which “polymerase ribozyme fitness (log ratio)” value does the source give for G42C C51G C54G U77G U82G C114U here?
The value was no more than -4.2.

Which “polymerase ribozyme fitness (log ratio)” value does the source give for G42C C51G G94C C95U A97U U102C U148G here?
Its value is no more than -4.2.

Which “polymerase ribozyme fitness (log ratio)” value does the source give for G42C C51G U56A G83A C105U A122U U148A here?
The value was no more than -4.2.

With G42C C51U C103G as the variant, how does the “polymerase ribozyme fitness (log ratio)” value read?
Its value is no more than -4.2.

Which “polymerase ribozyme fitness (log ratio)” value does the source give for G42C C54A A64C U77A G83C G126A U145A here?
Its value is no more than -4.2.

For G42C C54G G58C G94C C114G C129U, which “polymerase ribozyme fitness (log ratio)” value is on record?
Its value is no more than -4.2.

For G42C C57U A73G G84C U101G, which “polymerase ribozyme fitness (log ratio)” value is on record?
The value was no more than -4.2.

For G42C C69G G84U C99A G128U, which “polymerase ribozyme fitness (log ratio)” value is on record?
Its value is no more than -4.2.

Which “polymerase ribozyme fitness (log ratio)” value does the source give for G42C C72G C93A A150G here?
The value was no more than -4.2.

With G42C C75A C76G G140U as the variant, how does the “polymerase ribozyme fitness (log ratio)” value read?
The value was no more than -4.2.

For G42C C76G C85U, which “polymerase ribozyme fitness (log ratio)” value is on record?
The value was no more than -4.2.

Which “polymerase ribozyme fitness (log ratio)” value does the source give for G42C C85G C123U here?
Its value is no more than -4.2.

With G42C C93A A147G as the variant, how does the “polymerase ribozyme fitness (log ratio)” value read?
The value was no more than -4.2.

Which “polymerase ribozyme fitness (log ratio)” value does the source give for G42C C95A A142C here?
Its value is no more than -4.2.

Which “polymerase ribozyme fitness (log ratio)” value does the source give for G42C C95A C99G A107U here?
The value was no more than -4.2.

For G42C C96G A115G, which “polymerase ribozyme fitness (log ratio)” value is on record?
The value was no more than -4.2.

Which “polymerase ribozyme fitness (log ratio)” value does the source give for G42C C96G C131A U148A here?
Its value is no more than -4.2.

For G42C C103G, which “polymerase ribozyme fitness (log ratio)” value is on record?
The value was no more than -4.2.

For G42C C105G, which “polymerase ribozyme fitness (log ratio)” value is on record?
The value was no more than -4.2.

Which “polymerase ribozyme fitness (log ratio)” value does the source give for G42C C131G here?
Its value is no more than -4.2.

For G42C C131G G141U, which “polymerase ribozyme fitness (log ratio)” value is on record?
Its value is no more than -4.2.

Which “polymerase ribozyme fitness (log ratio)” value does the source give for G42C C131G U134C U145C here?
The value was no more than -4.2.

Which “polymerase ribozyme fitness (log ratio)” value does the source give for G42C G46A A91U C96U A97C G117U here?
The value was no more than -4.2.

With G42C G46A G74C A113U as the variant, how does the “polymerase ribozyme fitness (log ratio)” value read?
Its value is no more than -4.2.

For G42C G48A C51G G83U U104G G126C, which “polymerase ribozyme fitness (log ratio)” value is on record?
Its value is no more than -4.2.
